One molecule from article PMC9834311, “Changes within the central stalk of E. coli F1Fo ATP synthase observed after addition of ATP” (Communications Biology, 2023) can be followed below.

Data set [1] deals with the molecule itself. Nature of the data set: cryo-EM structure; detergent-solubilised (digitonin) cysteine-free E. coli F1Fo ATP synthase (WT at 11 μM, εΔCTH2 mutant at 9 μM) with 10 mM MgATP, pH 8.0, 22 °C, 45 s in all until freezing.
In data set [2] the target is T1, E. coli F1Fo ATP synthase subunit ε (wild type, full length) (E. coli, UniProt P0A6E6 1-139).
T1 construct: ATP synthase epsilon chain, E. coli; subunit of the cysteine-free enzyme (all cysteines to alanine); also called ε subunit; WT; source: E. coli DK8, purified as part of the F1Fo complex (digitonin extraction, Talon resin, Superose 6 SEC)
T1 sequence (looked up): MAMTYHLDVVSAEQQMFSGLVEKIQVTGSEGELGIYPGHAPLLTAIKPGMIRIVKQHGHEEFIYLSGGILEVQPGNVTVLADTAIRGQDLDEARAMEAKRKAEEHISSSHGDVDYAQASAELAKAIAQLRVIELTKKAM
The description is as above. The note with it: both partners purified.

B1: E. coli F1Fo ATP synthase subunit c (natural protein)
chain: MENLNMDLLYMAAAVMMGLAAIGAAIGIGILGGKFLEGAARQPDLIPLLRTQFFIVMGLVDAIPMIAVGLGLYVMFAVA
notes: ATP synthase subunit c, E. coli; subunit of the cysteine-free enzyme (all cysteines to alanine); also called c subunit; c-ring; source: E. coli DK8, purified as part of the F1Fo complex (digitonin extraction, Talon resin, Superose 6 SEC)
On to B1, for which the binding result in data set [1] and in data set [2] was “binds” in each case.
